Reference: paper PMC4336329 (PLoS ONE, 2015)
In all, about 310,000 compounds went through this assay and about 2,200 (0.71%) showed an effect of 50% or more. Effects have a minus sign here. Some of the results follow.

The molecules below were run against human ether-à-go-go-related gene (hERG) potassium channel (human, UniProt Q12809) (assay: primary screen, population patch clamp on CHO cells stably expressing hERG).
Chain of human ether-à-go-go-related gene (hERG) potassium channel (Q12809 whole entry, looked up): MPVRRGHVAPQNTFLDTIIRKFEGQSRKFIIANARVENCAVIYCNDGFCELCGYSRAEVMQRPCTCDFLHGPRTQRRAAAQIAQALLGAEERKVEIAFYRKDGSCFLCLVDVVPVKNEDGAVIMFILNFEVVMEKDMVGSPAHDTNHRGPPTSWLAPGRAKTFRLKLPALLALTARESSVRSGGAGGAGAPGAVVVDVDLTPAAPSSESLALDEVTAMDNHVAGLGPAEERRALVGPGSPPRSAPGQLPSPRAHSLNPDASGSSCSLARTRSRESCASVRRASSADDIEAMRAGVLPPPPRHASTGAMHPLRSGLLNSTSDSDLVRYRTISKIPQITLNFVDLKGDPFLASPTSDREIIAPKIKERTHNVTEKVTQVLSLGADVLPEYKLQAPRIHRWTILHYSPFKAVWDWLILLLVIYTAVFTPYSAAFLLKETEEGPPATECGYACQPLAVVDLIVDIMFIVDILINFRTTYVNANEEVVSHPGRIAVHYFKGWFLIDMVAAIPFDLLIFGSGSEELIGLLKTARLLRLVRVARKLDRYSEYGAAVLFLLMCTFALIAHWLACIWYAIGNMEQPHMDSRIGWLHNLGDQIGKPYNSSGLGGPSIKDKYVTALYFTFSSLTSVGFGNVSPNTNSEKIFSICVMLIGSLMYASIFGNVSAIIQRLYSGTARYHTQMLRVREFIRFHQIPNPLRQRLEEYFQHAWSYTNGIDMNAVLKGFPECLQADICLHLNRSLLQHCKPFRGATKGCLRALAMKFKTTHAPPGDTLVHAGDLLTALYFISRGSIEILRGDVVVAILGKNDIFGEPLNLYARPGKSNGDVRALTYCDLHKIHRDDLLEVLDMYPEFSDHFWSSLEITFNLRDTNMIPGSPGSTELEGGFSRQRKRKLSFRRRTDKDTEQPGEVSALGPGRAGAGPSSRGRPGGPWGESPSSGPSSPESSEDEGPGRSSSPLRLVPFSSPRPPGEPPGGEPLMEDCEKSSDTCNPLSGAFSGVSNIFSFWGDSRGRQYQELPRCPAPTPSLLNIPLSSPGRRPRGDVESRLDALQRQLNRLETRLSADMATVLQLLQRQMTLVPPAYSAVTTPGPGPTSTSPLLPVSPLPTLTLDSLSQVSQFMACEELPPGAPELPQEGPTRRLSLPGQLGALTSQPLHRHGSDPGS

| Compound | hERG current change (%, negative = inhibition) at 1uM [%] |
| --- | --- |
| CCOC(=O)N1CCC(N(CCCOC)C(=O)Nc2cccc(OC)c2)CC1 | 5.59 |
| CCc1ccc(C(=O)O)cc1 | 11.5 |
| COc1ccccc1CNC(=O)COC(=O)CCC(=O)c1cccs1 | 11.5 |
| COc1cccc(C2NC(c3cccc(OC)c3O)C(C)C(=O)C2C)c1O (stereo not shown) | -2.36 |
| Cc1cccnc1NC(=O)CNC(=O)C12CC3CC(CC(Cl)(C3)C1)C2 | 12.7 |
| Cc1cccc(NC(=O)CCSc2ccccn2)c1 | 6.01 |
| COC(=O)c1c(C)oc(C)c(C(=O)OC)c1=O | 1.88 |
| Cc1cc(C)n(C(=O)CSc2nc3ccccc3o2)n1 | 9.56 |
| Cc1ccccc1C(=O)NNc1ccc([N+](=O)[O-])cc1 | -10.6 |
| Cc1ccc(S(=O)(=O)N2CCC(=O)N(CCOC(=O)Nc3cccc(Cl)c3)CC2)cc1 | -4.62 |
| Nc1ccc(-c2cnc(-c3ccc(N)cc3)nc2)cc1 | 12.2 |
| CC1Cc2ccccc2N1C(=O)CCNS(=O)(=O)c1ccc2c(c1)CCC(=O)N2 (stereo not shown) | -11.8 |
| Cc1ccc(C(=O)Nc2nc3nc(-c4ccccc4)cc(=O)n3[nH]2)cc1 | 14.5 |
| CC(=O)c1ccc(OCC(O)CN(C)Cc2cccs2)cc1 (stereo not shown) | 4.2 |
| C=CCn1c(N)c(C(=O)NCc2cccnc2)sc1=S | -7.2 |
| CCCN(C(=O)CCNC(=O)c1ccc(Cl)cc1)c1c(N)n(Cc2ccccc2)c(=O)[nH]c1=O | 6.13 |
| CCCS(=O)(=O)c1nc(S(=O)(=O)c2ccc(C)cc2)c(NCCCN2CCOCC2)s1 | 7.31 |
| O=C(Nc1cccc2ncccc12)c1ccc(F)cc1 | 13.7 |
| CCOc1cc(/C=C2\SC(=NC)N(C)C2=O)cc(Cl)c1OC(C)=O | 4.56 |
| CC(C)(C)c1nc(Sc2ncccc2[N+](=O)[O-])n[nH]1 | 7.76 |
| Cc1nc2cc(Cl)ccc2c(=O)n1Cc1ccncc1 | 2.18 |
| CN(C)CCCNC(=S)N(CCCO)Cc1cc2cc3c(cc2[nH]c1=O)OCO3 | 15.9 |

| Compound | hERG current change (%, negative = inhibition) at 1uM [%] |
| --- | --- |
| O=S(=O)(Cc1ccccc1)N1CCN(Cc2ccccc2)CC1 | 1.08 |
| NC(CSS(=O)(=O)O)=NCCC12CC3CC(CC(O)(C3)C1)C2 | 17.5 |
| COCCNC(=O)c1cn(C)c2ccc(S(=O)(=O)N3CCCCC3)cc2c1=O | 10.6 |
| Cc1ccc2c(CC(=O)OCC(=O)Nc3ccc(Cl)cn3)coc2c1 | 11 |
| O=C(NCC1CCCO1)c1ccc2c(=O)n(-c3ccccc3)c(=S)[nH]c2c1 (stereo not shown) | 4.15 |
| O=C(CSc1n[nH]c(=O)[nH]c1=O)N/N=C/c1ccccc1O | 18.9 |
| COC(=O)CSc1nc(C)c2ccc(OC)cc2n1 | 16.8 |
| Cc1ccc(CS(=O)Cc2ccc(C(=O)NCc3ccccc3)o2)cc1 (stereo not shown) | 11.1 |
| CCN=c1scc(-c2ccc3c(c2)NC(=O)CO3)n1N=C1CCCC1 | 4.07 |
| COc1cc(S(=O)(=O)NCCc2ccc3c(c2)OCO3)ccc1-n1cnnn1 | -3.05 |
| Cc1nc(N/N=C/c2ccc(Br)cc2)cc(N2CCOCC2)n1 | 7.64 |
| O=S(=O)(c1ccccc1)N1CCN=C1SCc1cccc(Cl)c1 | -12.3 |
| COc1ccc(-c2noc(-c3cccc(OC)c3OC)n2)cc1OC | 20.7 |
| CCC1Nc2ncnc(N3CCN(c4ccccc4)CC3)c2N(Cc2ccc(C)cc2)C1=O.O=C(O)C(F)(F)F (stereo not shown) | 12.9 |
| COC(=O)c1ccc(CSc2nc3ccccc3o2)cc1 | -1.78 |
| CC(=O)Nc1ccc(C(=O)OCC(=O)N2CCCC2)cc1 | 14.6 |
| Cc1c(C(=O)Nc2cc(F)ccc2F)sc2nc3n(c(=O)c12)CCCCC3 | 18.1 |
| COC(=O)c1ccc(CC(=O)c2c(C)cc(O)cc2O)o1 | -0.154 |
| CCN(CC)C(=O)Cn1cc(/C=C(\C#N)C(=O)NC2CC2)c2ccccc21 | 8.04 |
| CCN(CC)Cc1cc(NC2=NS(=O)(=O)c3ccccc32)ccc1OC(=O)c1ccccc1.Cl | -27.9 |
| Cc1ccc(S(=O)(=O)N2CCN(CC(=O)NC3CCCc4ccccc43)CC2)c(C)c1 (stereo not shown) | 1.55 |
